# Measured values as given in PubChem BioAssay AID504706 (National Center for Advancing Translational Sciences (NCATS), 2011).
# Out of some 320,000 compounds screened, about 200 (0.062%) were called active. The shares of active, inactive and inconclusive entries below differ from those in the screen. The call rests on the fitted dose curve; in most records, active means well fitted activation curve with a large enough effect; inconclusive means small, poorly fitted or top-dose-only effect; inactive means no such curve, though single readings can be large or run the other way. No potency is given beside an inconclusive call; the fits are too rough.
# Assay: qHTS assay for re-activators of p53 using a Luc reporter; further: nearly all actives have a fitted effect of over 45% in size
# Details: H1299 p53-A138V BP100-luciferase reporter, luminescence, 24 h; series mostly up to 92.2 µM
# Outline: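 H1299 (p53-null), stable ts p53-A138V + BP100-Luc; 1000 cells/well, Opti-MEM/10% FBS; cpd 4 pt, 1:5; 24 h, 37 deg C, 5% CO2; detection reagent 10 min RT; luminescence.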
# Potency means the concentration at half of the fitted maximal effect; tags describe the fitted curve by direction and shape.
row,Compound,Potency
1,Oc1cccc(/C=N/N2CCCCC2)c1O,"inconclusive [activator, full curve, poor fit]"
2,Cc1cccc(NC(=O)c2sc(C)nc2C)c1,inactive
3,CC/C(=N\NC(=O)c1ccc(N(C)C)cc1)c1ccccc1,"inconclusive [activator, partial curve, poor fit]"
4,COc1cccc(/C(C)=N/NC(=O)c2ccc(N(C)C)cc2)c1,"inconclusive [activator, partial curve, poor fit]"
5,Cc1cc(-n2c(C)c3c(C)nnc(C)c3c2C)ccc1N,inactive
6,O=C(Nc1ccc(Br)cn1)c1ccc2ccccc2c1,"inconclusive [activator, partial curve, poor fit]"
7,COc1ccc(-c2nc(CS(=O)(=O)CC(=O)NC3CCCCCC3)c(C)o2)cc1,inactive
8,COC(=O)c1ccc(COc2ccccc2/C=N/NS(=O)(=O)c2ccccc2)cc1,"inconclusive [activator, partial curve, poor fit]"
9,CN(C)c1ccc(/C=C/C(=O)c2ccc(O)cc2)cc1[N+](=O)[O-],"inconclusive [activator, partial curve, poor fit]"
10,COc1cccc(C(=O)c2sc(NC(C)C)nc2N)c1,"inconclusive [activator, partial curve, poor fit]"
11,COc1cc2c(cc1NC(=O)C(C)NCc1ccccc1)oc1ccccc12 (stereo not given),"inconclusive [activator, partial curve, poor fit]"
12,CCCc1c(C(=O)N/N=C/c2ccc(OC)c(OCc3ccccc3)c2)nnn1-c1nonc1N,"inconclusive [activator, full curve, poor fit]"
13,COC(=O)c1ccc(COc2ccc(F)cc2)o1,inactive
14,COc1ccc(N/C=C\C(=O)c2ccc3c(c2)OCO3)cc1,"inconclusive [activator, partial curve, poor fit]"
15,Cc1ccccc1-c1nc(CN2CCC(C(=O)NCCCN3CCOCC3)CC2)c(C)o1,"inconclusive [activator, single point]"
16,CC(=O)N1C(O)CC(C)N1c1ccccc1 (stereo not given),inactive
17,CCOC(=O)Cc1cc(=O)[nH]c(Nc2nc3ccccc3o2)n1,"inconclusive [activator, single point]"
18,CCC1CCCCN1CC(=O)c1c(C)[nH]c2cc(C)ccc12 (stereo not given),inactive
19,CC(C)N(Cc1ccccc1)C(=O)COC(=O)/C=C/c1cnc2ccccc2n1,inactive
20,CC(C)OC(=O)CSc1nnnn1-c1ccc2c(c1)OCCO2,"inconclusive [activator, single point]"
21,c1coc(CN2CNc3nc4ccccc4n3C2)c1,inactive
22,O=C1CN(C(=O)c2ccc(Br)o2)C(c2ccc(F)cc2)c2cc(F)ccc2N1 (stereo not given),inactive
23,O=C(Nc1ccc2c(c1)COC2=O)c1ccc(Cl)c(Cl)c1,"inconclusive [activator, partial curve, poor fit]"
24,COc1ccc(CCC(=O)NC(C)C2CCCO2)cc1 (stereo not given),"inconclusive [activator, partial curve, poor fit]"

row,Compound,Potency
1,O=C(Nc1ccc2nc(N3CCOCC3)sc2c1)c1ccc(F)cc1,"inconclusive [activator, single point]"
2,O=C(NNC(=O)c1ccccc1Cl)c1ccc2c(=O)n3c(nc2c1)CCC3,"inconclusive [activator, full curve, poor fit]"
3,Cn1cc(Br)c(C(=O)Nc2nccs2)n1,"inconclusive [activator, partial curve, poor fit]"
4,COc1ccc(CNc2ccc([N+](=O)[O-])cn2)cc1,"inconclusive [activator, full curve, poor fit]"
5,Cc1ccc(CC(=O)NCC2CCCCC2)cc1,"inconclusive [activator, partial curve, poor fit]"
6,CC(=O)c1ccc(NC(=O)c2noc(C)c2[N+](=O)[O-])cc1,"inconclusive [activator, partial curve, poor fit]"
7,CSc1ccccc1-c1nnc(-c2ccc(Cl)c(Cl)c2)o1,"inconclusive [activator, single point]"
8,COC(=O)c1cc2c(s1)CS(=O)C2 (stereo not given),"inconclusive [activator, partial curve, poor fit]"
9,O=C(Nc1nnc(-c2ccccn2)o1)c1ccc(Br)cc1,inactive
10,NS(=O)(=O)c1ccc(NC(=O)c2ccc(OCC3CCCO3)cc2)cc1 (stereo not given),inactive
11,Fc1ccc2c(c1)[C@H]1OCC[C@H]1[C@@H](c1ccco1)N2,inactive
12,O=C(NCc1ccco1)c1noc2c1CCCC2,"inconclusive [activator, partial curve, poor fit]"
13,COc1cccc(Nc2c(F)c(F)c(F)c(F)c2C(=O)O)c1,"inconclusive [activator, single point]"
14,O=C(C1CC1)N1CCN(c2nc3ccccc3s2)CC1,"inconclusive [activator, partial curve, poor fit]"
15,Cn1c(CNC(=O)c2ccco2)nnc1SCC(=O)c1ccccc1,inactive
16,S=C(N/N=C/c1ccc(Cl)cc1)N1CCOCC1,"inconclusive [activator, partial curve, poor fit]"
17,O=C(CCN1C(=O)/C(=C/c2ccccc2)SC1=S)NCCCN1CCOCC1,"inconclusive [activator, full curve, poor fit]"
18,COc1cc(Cl)ccc1OCc1cc(C(=O)NCC(C)c2ccccc2)no1 (stereo not given),"inconclusive [activator, single point]"
19,COc1ccccc1C1CC(c2cccs2)=Nc2ccccc2S1 (stereo not given),"inconclusive [activator, partial curve, poor fit]"
20,O=C(CSCc1ccc(Cl)cc1)N1CCCCC1,"inconclusive [activator, partial curve, poor fit]"
21,Cc1ccc(-c2noc(CNc3ccccc3)n2)cc1,"inconclusive [activator, full curve, poor fit]"
22,COc1ccc(NC(=O)c2ccc3c(=O)n(Cc4ccco4)c(=S)[nH]c3c2)c(OC)c1,inactive
23,CCOc1cc2[nH]c(=O)n(CCCN3CCCC3=O)c(=O)c2cc1OCC,inactive
24,Cn1c(=O)c2c3c(sc2n2c(SCC(=O)c4ccccc4)nnc12)COC(C)(C)C3,"inconclusive [activator, single point]"

row,Compound,Potency
1,O=C(COc1ccc(Br)cc1Br)NNC(=O)c1cccs1,"inconclusive [activator, single point]"
2,COC(=O)Cc1ccc2oc(-c3cccnc3)nc2c1,"inconclusive [activator, single point]"
3,CC(C)(C)N1C(=O)c2ccc(C(=O)Nc3nccs3)cc2C1=O,"inconclusive [activator, partial curve, poor fit]"
4,O=C(Nc1nnc(SCC(=O)N2CCCc3ccccc32)s1)c1cccc2ccccc12,inactive
5,CCSc1nnc(Nc2ccccc2)s1,"inconclusive [activator, full curve, poor fit]"
6,NS(=O)(=O)c1ccc(N/C=C/C(=O)c2ccc(Br)cc2)cc1,"inconclusive [activator, full curve, poor fit]"
7,Cc1nn(C)c(C(=O)NC(=S)Nc2ccccc2Br)c1Cl,"inconclusive [activator, full curve, poor fit]"
8,CS(=O)(=O)n1nc(-c2ccccc2)nc1NCc1ccco1,"inconclusive [activator, partial curve, poor fit]"
9,CCC(=O)Nc1c(C#N)c2nc3ccccc3nc2n1C1CCCCC1,inactive
10,O=C(CSC1=NCCS1)N1CCOCC1,"inconclusive [activator, single point]"
11,O=C(N/N=C1\CC2CC=CC12)c1ccc(O)cc1 (stereo not given),inactive
12,Cc1ccc(NC(=O)CN(C)C(=O)Nc2ccc(C)cc2)cc1,"inconclusive [activator, partial curve, poor fit]"
13,COc1ccccc1OCc1ccc(C(=O)N2CCCCC2)o1,"inconclusive [activator, partial curve, poor fit]"
14,Cc1ccccc1C(=O)N=c1sccn1C,inactive
15,CC(C)(C)SCCNC(=O)COc1ccc(Cl)cc1,"inconclusive [activator, single point]"
16,CC(NC(=O)c1ccc(Cl)s1)C1CCCO1 (stereo not given),inactive
17,COC(=O)Cc1ccc(NC(=O)c2ccc(Br)o2)cc1,"inconclusive [activator, single point]"
18,NS(=O)(=O)c1ccc(NC(=O)COc2ccc(Cl)cc2)cc1,inactive
19,Cc1ccc(-c2cc(C(=O)NCc3ccccn3)c3ccccc3n2)cc1C,"inconclusive [activator, single point]"
20,O=C(Nc1cccc(O)c1)c1cc(-c2ccco2)on1,"inconclusive [activator, partial curve, poor fit]"
21,O=C(COc1ncnc2ccccc12)c1ccc2c(c1)OCCO2,"inconclusive [activator, partial curve, poor fit]"
22,COc1ccc(N2CCN(C3CCCN(Cc4ccc(F)cc4)C3)CC2)cc1 (stereo not given),"inconclusive [activator, single point]"
